Results reported in paper PMC11335210.
Read-outs that look alike come from different tables or passages of the source. No constants are given. Whether binding was seen depends on the method and setting. In cells and extracts the contact can be indirect. Some binding calls cover weakened binding; strength is not graded here. Where a sequence is shown, tags or fusion partners need not be part of it. Values belong to the molecule of their own block, whether it stands above or below them.

By UniProt entry, the sequences of proteins in these tests, tags left out.
UniProt Q6DFV3: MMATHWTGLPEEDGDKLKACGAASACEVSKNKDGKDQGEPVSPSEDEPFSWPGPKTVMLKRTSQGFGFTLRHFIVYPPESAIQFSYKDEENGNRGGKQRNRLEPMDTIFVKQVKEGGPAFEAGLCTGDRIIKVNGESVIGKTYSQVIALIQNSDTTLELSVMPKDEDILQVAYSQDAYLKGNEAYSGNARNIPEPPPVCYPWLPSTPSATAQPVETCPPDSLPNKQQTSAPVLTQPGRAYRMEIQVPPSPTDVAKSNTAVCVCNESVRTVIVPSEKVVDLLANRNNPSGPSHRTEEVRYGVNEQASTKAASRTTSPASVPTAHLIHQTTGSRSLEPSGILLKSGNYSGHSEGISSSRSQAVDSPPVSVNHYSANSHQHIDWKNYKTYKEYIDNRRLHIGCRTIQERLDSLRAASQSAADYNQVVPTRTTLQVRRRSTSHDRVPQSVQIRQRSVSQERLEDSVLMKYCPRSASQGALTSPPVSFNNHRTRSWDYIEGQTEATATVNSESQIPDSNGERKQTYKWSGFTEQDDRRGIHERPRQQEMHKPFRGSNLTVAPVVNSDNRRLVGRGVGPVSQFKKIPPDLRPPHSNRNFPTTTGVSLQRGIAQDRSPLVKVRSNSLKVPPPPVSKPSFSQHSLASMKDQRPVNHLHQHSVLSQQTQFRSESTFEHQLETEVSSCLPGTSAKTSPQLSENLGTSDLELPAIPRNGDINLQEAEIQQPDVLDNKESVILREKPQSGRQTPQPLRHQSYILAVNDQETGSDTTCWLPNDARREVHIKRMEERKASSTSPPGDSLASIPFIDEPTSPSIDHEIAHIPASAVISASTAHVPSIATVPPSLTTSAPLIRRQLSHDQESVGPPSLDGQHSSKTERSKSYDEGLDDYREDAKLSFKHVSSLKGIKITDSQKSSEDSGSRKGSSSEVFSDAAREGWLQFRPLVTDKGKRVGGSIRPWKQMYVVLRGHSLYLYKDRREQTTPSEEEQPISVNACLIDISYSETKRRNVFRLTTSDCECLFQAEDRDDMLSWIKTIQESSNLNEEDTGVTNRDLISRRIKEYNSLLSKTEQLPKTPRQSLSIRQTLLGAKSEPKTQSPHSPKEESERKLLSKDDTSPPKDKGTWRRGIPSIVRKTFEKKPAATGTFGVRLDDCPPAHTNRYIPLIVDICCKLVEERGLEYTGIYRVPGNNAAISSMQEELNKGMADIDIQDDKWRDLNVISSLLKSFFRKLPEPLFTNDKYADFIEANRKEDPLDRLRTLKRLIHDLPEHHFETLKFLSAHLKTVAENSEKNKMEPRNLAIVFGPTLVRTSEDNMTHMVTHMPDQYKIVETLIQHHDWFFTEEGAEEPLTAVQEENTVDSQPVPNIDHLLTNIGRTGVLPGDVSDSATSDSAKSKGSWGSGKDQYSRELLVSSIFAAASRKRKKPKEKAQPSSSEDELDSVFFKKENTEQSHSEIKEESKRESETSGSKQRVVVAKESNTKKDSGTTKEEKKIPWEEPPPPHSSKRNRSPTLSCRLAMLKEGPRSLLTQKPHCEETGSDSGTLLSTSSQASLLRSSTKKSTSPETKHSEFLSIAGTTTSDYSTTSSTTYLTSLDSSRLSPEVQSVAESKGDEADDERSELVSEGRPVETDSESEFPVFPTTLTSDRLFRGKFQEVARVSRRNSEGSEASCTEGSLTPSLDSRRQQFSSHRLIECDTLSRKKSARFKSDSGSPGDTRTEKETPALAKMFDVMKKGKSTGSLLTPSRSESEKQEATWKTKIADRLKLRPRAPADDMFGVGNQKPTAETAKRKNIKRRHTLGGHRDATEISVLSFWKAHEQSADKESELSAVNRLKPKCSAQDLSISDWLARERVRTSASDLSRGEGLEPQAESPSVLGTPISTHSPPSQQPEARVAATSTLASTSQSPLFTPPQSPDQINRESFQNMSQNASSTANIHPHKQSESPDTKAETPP
UniProt P70335: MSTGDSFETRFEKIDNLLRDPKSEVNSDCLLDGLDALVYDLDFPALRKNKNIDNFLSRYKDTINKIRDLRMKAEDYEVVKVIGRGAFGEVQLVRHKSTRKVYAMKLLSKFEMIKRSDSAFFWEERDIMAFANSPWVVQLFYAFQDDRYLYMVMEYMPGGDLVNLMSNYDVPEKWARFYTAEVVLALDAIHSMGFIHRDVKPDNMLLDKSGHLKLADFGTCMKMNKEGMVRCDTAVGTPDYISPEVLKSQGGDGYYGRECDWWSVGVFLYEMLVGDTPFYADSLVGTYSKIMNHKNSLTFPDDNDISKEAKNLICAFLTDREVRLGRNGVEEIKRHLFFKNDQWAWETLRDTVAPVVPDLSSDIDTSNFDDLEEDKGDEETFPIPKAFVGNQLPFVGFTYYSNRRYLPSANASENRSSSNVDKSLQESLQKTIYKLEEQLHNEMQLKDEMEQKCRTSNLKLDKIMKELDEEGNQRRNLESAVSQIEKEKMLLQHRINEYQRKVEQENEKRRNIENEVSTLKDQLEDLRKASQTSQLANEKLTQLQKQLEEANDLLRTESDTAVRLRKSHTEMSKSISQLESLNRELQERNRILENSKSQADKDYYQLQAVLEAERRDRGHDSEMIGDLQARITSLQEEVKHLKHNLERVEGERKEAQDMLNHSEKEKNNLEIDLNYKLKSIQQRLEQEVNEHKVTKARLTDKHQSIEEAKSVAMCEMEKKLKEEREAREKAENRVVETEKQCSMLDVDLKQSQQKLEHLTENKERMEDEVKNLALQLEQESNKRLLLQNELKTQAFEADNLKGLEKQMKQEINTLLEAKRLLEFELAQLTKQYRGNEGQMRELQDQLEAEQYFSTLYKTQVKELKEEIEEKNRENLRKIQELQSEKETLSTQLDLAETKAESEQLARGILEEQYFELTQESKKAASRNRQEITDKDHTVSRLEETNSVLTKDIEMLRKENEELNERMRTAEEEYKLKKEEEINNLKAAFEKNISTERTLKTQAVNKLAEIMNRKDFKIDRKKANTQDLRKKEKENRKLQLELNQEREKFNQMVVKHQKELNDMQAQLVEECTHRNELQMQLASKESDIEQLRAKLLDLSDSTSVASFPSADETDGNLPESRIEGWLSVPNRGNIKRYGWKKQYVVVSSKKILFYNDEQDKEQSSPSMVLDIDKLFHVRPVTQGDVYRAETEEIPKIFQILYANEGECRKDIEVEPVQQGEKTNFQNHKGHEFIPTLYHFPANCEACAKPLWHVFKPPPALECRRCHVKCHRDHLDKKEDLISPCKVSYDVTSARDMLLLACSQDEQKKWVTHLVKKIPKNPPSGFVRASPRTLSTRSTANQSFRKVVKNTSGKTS

Columns and labels:
[1] = target: T1, human PKP4 N-terminally tagged with EGFP (EGFP-PKP4-WT) (human) (UniProt Q99569); assay: co-IP; GFP-Trap Agarose on lysates of PKP4-KO + GFP-PKP4 (Rescue) keratinocytes, WT + GFP cells as control; IP buffer 20 mM Tris-HCl pH 7.5, 137 mM NaCl, 2 mM EDTA, 10% glycerol, 1% NP-40; 1 h at 4 °C; western blot
T1 sequence: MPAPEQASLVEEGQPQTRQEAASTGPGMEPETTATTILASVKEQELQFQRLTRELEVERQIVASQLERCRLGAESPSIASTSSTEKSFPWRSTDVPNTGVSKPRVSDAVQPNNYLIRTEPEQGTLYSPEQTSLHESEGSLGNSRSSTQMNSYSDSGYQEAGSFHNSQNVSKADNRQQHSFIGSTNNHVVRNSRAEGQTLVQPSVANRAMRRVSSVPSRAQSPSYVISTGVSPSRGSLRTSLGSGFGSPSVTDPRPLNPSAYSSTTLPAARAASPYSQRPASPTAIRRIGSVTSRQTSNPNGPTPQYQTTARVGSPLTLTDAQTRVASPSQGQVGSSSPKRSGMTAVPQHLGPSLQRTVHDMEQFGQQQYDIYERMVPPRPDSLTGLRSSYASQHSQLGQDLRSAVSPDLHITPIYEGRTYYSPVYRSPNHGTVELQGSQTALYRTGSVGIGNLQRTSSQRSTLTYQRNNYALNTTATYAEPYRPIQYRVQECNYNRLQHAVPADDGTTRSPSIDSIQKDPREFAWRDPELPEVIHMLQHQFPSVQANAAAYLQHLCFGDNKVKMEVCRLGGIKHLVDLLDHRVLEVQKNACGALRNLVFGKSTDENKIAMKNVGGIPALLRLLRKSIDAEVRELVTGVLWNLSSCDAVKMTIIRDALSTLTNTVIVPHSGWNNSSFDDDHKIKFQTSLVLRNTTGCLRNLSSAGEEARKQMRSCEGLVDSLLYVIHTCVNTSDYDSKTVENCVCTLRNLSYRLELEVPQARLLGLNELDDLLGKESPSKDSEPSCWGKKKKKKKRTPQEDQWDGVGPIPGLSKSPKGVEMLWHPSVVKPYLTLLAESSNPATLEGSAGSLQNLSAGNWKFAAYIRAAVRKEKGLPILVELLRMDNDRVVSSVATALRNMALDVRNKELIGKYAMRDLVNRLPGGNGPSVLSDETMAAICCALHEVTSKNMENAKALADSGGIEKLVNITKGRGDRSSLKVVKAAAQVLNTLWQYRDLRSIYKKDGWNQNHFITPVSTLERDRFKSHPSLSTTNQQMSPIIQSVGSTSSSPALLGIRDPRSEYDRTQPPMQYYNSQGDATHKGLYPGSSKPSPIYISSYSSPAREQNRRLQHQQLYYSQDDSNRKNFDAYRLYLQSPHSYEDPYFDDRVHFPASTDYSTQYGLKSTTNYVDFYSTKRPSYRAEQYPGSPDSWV

[2] = target: T1, human PKP4 N-terminally tagged with EGFP (EGFP-PKP4-WT) (human); assay: as above; remark: listed apart in the source

binding [1]: no binding
Molecule: ARHGAP21 (from UniProt Q6DFV3 1-1945)

binding [1]: no binding
Molecule: ROCK1 (from UniProt P70335 1-1354) (enzyme)

binding [2]: binds
B1: ARHGEF2 (also called GEFH1) (protein, UniProt Q60875 1-985)
chain: MSRIESLTRARIDRSKEQATKTREKEKMKEAKDARYTNGHLFTTISVSGMTMCYACNKSITAKEALICPTCNVTIHNRCKDTLANCTKVKQKQQKAALLRNNTALQSVSLRSKTTTRERPTSAIYPSDSFRQSLLGSRRGLSSLSLAKSVSTTNIAGHFNDESPLGLRQILSQSTDSLNMRNRTLSVESLIDEGVEVFYNELMSDFEMDEKDFEADSWSLAVDSSFLQQHKKEVMKKQDVIYELIQTELHHVRTLKIMTRLFRTGMLEELQMEPEVVQGLFPCVDELSDIHTRFLNQLLERRRQALCPGSTRNFVIHRLGDLLISQFSGSNAEQMRKTYSEFCSRHTKALKLYKELYARDKRFQQFIRKMTRSAVLKRHGVQECILLVTQRITKYPVLINRILQNSHGVEEEYQDLASALGLVKELLSNVDQDVHELEKEARLQEIYNRMDPRAQTPVPGKGPFGRDELLRRKLIHEGCLLWKTATGRFKDVLLLLMTDVLVFLQEKDQKYIFTSLDKPSVVSLQNLIVRDIANQAKGMFLISSGPPEMYEVHAASRDDRTTWIRVIQQSVRLCPSREDFPLIETEDKAYLRRIKTKLQQKNQALVELLQKNVELFAEMVHFQALKAGFVGMPPPALPRGLFRLESFESLRGERLLKDALREVEGLKDLLLGPCVDLPMTSREPALPLDSDSGSCPGVTANGEARTFNGSIELCRADSDSSQKDRNGNQLRSPQEEVLQPLINLYGLLHGLQAVVVQQERLMEALFPEGPERWEKLSRANSRDGEAGRAAVASVTPEKQATELALLQRQHTLLQEELRRCQRLGEERATEAGSLEARLRESEQARALLEREAEEIRRQLAALGQNEPLPAEAPWARRPLDPRRRSLPAGDALYLSFNPPQPSRGHDRLDLPVTVRSLHRPFDDREAQELGSPEDRLQDSSDPDTGSEEEVSSRLSPPHSPRDFTRMQDIPEETESRDGEPTASES
